Experimental findings from the supplement of paper PMC9174493 are described below.

Structures are written as SMILES. Some of the results follow. Single values of this set are uncertain. Values with irradiation are relative to irradiated vehicle.

In this assay the test system is A549-Dual. The experiment in a line: ISRE reporter (Lucia luciferase) activity, viability-corrected, relative to vehicle (fold change vs vehicle); higher = more activation of STING-IRF / NF-kB immune response reporter. The settings on record: 10 µM; irradiation: none.
On to `CCCCCCCCCCCCCCCC(=O)OC/C=C(C)/C=C/C=C(C)/C=C/C1=C(C)CCCC1(C)C` [Retinyl (Vitamin A) Palmitate], for which the ISRE reporter was 0.144. `C[N+]1(C)CCC(OC(=O)C(O)(c2ccccc2)C2CCCC2)C1.[Br-]` (centres undefined) [Glycopyrrolate] registered an ISRE reporter of 0.694. Take `Cc1ncc(C[n+]2csc(CCO)c2C)c(N)n1.Cl.[Cl-]` [Thiamine HCl (Vitamin B1)]: the ISRE reporter was found to be 0.774. With `NCCCCCC(=O)O` [(6-)ε-Aminocaproic acid], the ISRE reporter is 0.941. On to `CC(C)Nc1cccnc1N1CCN(C(=O)c2cc3cc(NS(C)(=O)=O)ccc3[nH]2)CC1.CS(=O)(=O)O` [Delavirdine (mesylate)], for which the ISRE reporter is 0.936. Take `CC(C)c1c(C(=O)Nc2ccccc2)c(-c2ccccc2)c(-c2ccc(F)cc2)n1CCC(O)CC(O)CC(=O)[O-].CC(C)c1c(C(=O)Nc2ccccc2)c(-c2ccccc2)c(-c2ccc(F)cc2)n1CCC(O)CC(O)CC(=O)[O-].[Ca+2]` (centres undefined) [Atorvastatin Calcium]: the ISRE reporter was 1.14. Compound `O=C(O)Cc1cc(I)c(Oc2ccc(O)c(I)c2)c(I)c1` [Tiratricol] returned an ISRE reporter of 1.05. In the case of `CN1CCCN=C1/C=C/c1cccs1.O=C(O)c1cc2ccccc2c(Cc2c(O)c(C(=O)O)cc3ccccc23)c1O` [Pyrantel Pamoate], the ISRE reporter is 0.526. Compound `CC1OC(OCC2OC(Oc3c(-c4ccc(O)c(O)c4)oc4cc(O)cc(O)c4c3=O)C(O)C(O)C2O)C(O)C(O)C1O` (centres undefined) [Rutin hydrate] returned an ISRE reporter of 0.622. Consider `C[C@H](O)C(=O)O` [L-Lactic acid], for which the ISRE reporter turned out to be 0.825. In the case of `CN(CCO)CC(O)Cn1cnc2c1c(=O)n(C)c(=O)n2C.O=C(O)c1cccnc1` (centres undefined) [Xanthinol Nicotinate] it was 0.775; in that of `COc1cc(O)c2c(c1)oc(=O)c1c3cc(O)c(O)cc3oc21` [Wedelolactone], 0.38; in that of `CN1CCN(CCCN2c3ccccc3Sc3ccc(C(F)(F)F)cc32)CC1.Cl.Cl` [Trifluoperazine 2HCl], 1.61.

In turn, `O=C(/C=C/c1ccccc1)OCc1ccccc1` [Benzyl cinnamate] returned an ISRE reporter of 0.542. In the case of `CC(O)Cn1cnc2c1c(=O)n(C)c(=O)n2C` (centres undefined) [Proxyphylline] it was 1.02; in that of `CC(C)NCC(O)COc1ccc(CCOCC2CC2)cc1.Cl` (centres undefined) [Betaxolol HCl], 0.743. Under `CC(C)(C(=O)O)c1ccc(C(O)CCCN2CCC(C(O)(c3ccccc3)c3ccccc3)CC2)cc1.Cl` (centres undefined) [Fexofenadine HCl] stands 0.844; under `C/C=C/c1ccc(O)c(OC)c1` [Isoeugenol], 0.414; under `CN1CC(=O)NC1=N` [Creatinine], 0.665. As for `Nc1ccc(S(=O)(=O)Nc2nccs2)cc1` [Sulfathiazole], the ISRE reporter was 0.867. Compound `CCCSc1nc(NC2CC2c2ccc(F)c(F)c2)c2nnn(C3CC(OCCO)C(O)C3O)c2n1` (centres undefined) [Ticagrelor] registered an ISRE reporter of 0.637. `CC(=O)NS(=O)(=O)c1ccc(NC(=O)c2ccccc2C(=O)O)cc1` [Phthalylsulfacetamide] yielded an ISRE reporter of 0.591. `OCC1OC(O)C(O)C(O)C1O` [D-Mannose] yielded an ISRE reporter of 0.864. For the compound `CC(C)(CO)C(O)C(=O)NCCC(=O)NCCSSCCNC(=O)CCNC(=O)C(O)C(C)(C)CO` [D-Pantethine], the ISRE reporter was 0.662. `CC1OC(OC2C(Oc3cc(O)c(C(=O)CCc4ccc(O)cc4)c(O)c3)OC(CO)C(O)C2O)C(O)C(O)C1O` (centres undefined) [Naringin Dihydrochalcone] yielded an ISRE reporter of 0.668.

For the compound `CC(=O)OCC(=O)C1(O)CCC2C3CCC4=CC(=O)CCC4(C)C3C(O)CC21C` (centres undefined) [Hydrocortisone acetate], the ISRE reporter was found to be 0.286.

`NCC1CCC(C(=O)O)CC1` (centres undefined) [Tranexamic Acid] came in with an ISRE reporter of 0.787. Take `CCN(CC)CC(=O)Nc1c(C)cccc1C` [Lidocaine]: the ISRE reporter was 0.804.

`CC(C)(Sc1cc(C(C)(C)C)c(O)c(C(C)(C)C)c1)Sc1cc(C(C)(C)C)c(O)c(C(C)(C)C)c1` [Probucol] showed an ISRE reporter of 0.827.
